{
  "source": "paper PMC9911399",
  "about": "“Two distinct binding modes provide the RNA-binding protein RbFox with extraordinary sequence specificity”",
  "binders": {"B1": {"name": "GAUCCCC (DNA:RNA)", "RNA": "GGGAGACCGGAAUUCAGAUUGUCCGAUCCCCUUAAAUCCCGUCGUAGCCACCA", "DNA 1": "CAATCTGAATTCCGGTCTCCC", "DNA 2": "TGGTGGCTACGACGGGATT"}, "B2": {"name": "ACUCCCG (DNA:RNA)", "RNA": "B1 RNA with G25A, A26C, C31G", "DNA 1": "CAATCTGAATTCCGGTCTCCC", "DNA 2": "TGGTGGCTACGACGGGATT"}, "B3": {"name": "CUUCAGC (DNA:RNA)", "RNA": "B1 RNA with G25C, A26U, C29A, C30G", "DNA 1": "CAATCTGAATTCCGGTCTCCC", "DNA 2": "TGGTGGCTACGACGGGATT"}, "B4": {"name": "GUAUGUG (DNA:RNA)", "RNA": "B1 RNA with A26U, U27A, C28U, C29G, C30U, C31G", "DNA 1": "CAATCTGAATTCCGGTCTCCC", "DNA 2": "TGGTGGCTACGACGGGATT"}, "B5": {"name": "GGCUCUA (DNA:RNA)", "RNA": "B1 RNA with A26G, U27C, C28U, C30U, C31A", "DNA 1": "CAATCTGAATTCCGGTCTCCC", "DNA 2": "TGGTGGCTACGACGGGATT"}, "B6": {"name": "AUACUGC (DNA:RNA)", "RNA": "B1 RNA with G25A, A26U, U27A, C29U, C30G", "DNA 1": "CAATCTGAATTCCGGTCTCCC", "DNA 2": "TGGTGGCTACGACGGGATT"}, "B7": {"name": "CAUGGUA (DNA:RNA)", "RNA": "B1 RNA with G25C, C28G, C29G, C30U, C31A", "DNA 1": "CAATCTGAATTCCGGTCTCCC", "DNA 2": "TGGTGGCTACGACGGGATT"}, "B8": {"name": "UGUUCCG (DNA:RNA)", "RNA": "B1 RNA with G25U, A26G, C28U, C31G", "DNA 1": "CAATCTGAATTCCGGTCTCCC", "DNA 2": "TGGTGGCTACGACGGGATT"}, "B9": {"name": "CUAACCU (DNA:RNA)", "RNA": "B1 RNA with G25C, A26U, U27A, C28A, C31U", "DNA 1": "CAATCTGAATTCCGGTCTCCC", "DNA 2": "TGGTGGCTACGACGGGATT"}, "B10": {"name": "GAGGGAU (DNA:RNA)", "RNA": "B1 RNA with U27G, C28G, C29G, C30A, C31U", "DNA 1": "CAATCTGAATTCCGGTCTCCC", "DNA 2": "TGGTGGCTACGACGGGATT"}, "B11": {"name": "GAUAUUU (DNA:RNA)", "RNA": "B1 RNA with C28A, C29U, C30U, C31U", "DNA 1": "CAATCTGAATTCCGGTCTCCC", "DNA 2": "TGGTGGCTACGACGGGATT"}, "B12": {"name": "AAAGAAA (DNA:RNA)", "RNA": "B1 RNA with G25A, U27A, C28G, C29A, C30A, C31A", "DNA 1": "CAATCTGAATTCCGGTCTCCC", "DNA 2": "TGGTGGCTACGACGGGATT"}, "B13": {"name": "UCGAGCA (DNA:RNA)", "RNA": "B1 RNA with G25U, A26C, U27G, C28A, C29G, C31A", "DNA 1": "CAATCTGAATTCCGGTCTCCC", "DNA 2": "TGGTGGCTACGACGGGATT"}, "B14": {"name": "ACGACAC (DNA:RNA)", "RNA": "B1 RNA with G25A, A26C, U27G, C28A, C30A", "DNA 1": "CAATCTGAATTCCGGTCTCCC", "DNA 2": "TGGTGGCTACGACGGGATT"}, "B15": {"name": "CCCACGC (DNA:RNA)", "RNA": "B1 RNA with G25C, A26C, U27C, C28A, C30G", "DNA 1": "CAATCTGAATTCCGGTCTCCC", "DNA 2": "TGGTGGCTACGACGGGATT"}, "B16": {"name": "GCCUAUA (DNA:RNA)", "RNA": "B1 RNA with A26C, U27C, C28U, C29A, C30U, C31A", "DNA 1": "CAATCTGAATTCCGGTCTCCC", "DNA 2": "TGGTGGCTACGACGGGATT"}, "B17": {"name": "UGGUGGC (DNA:RNA)", "RNA": "B1 RNA with G25U, A26G, U27G, C28U, C29G, C30G", "DNA 1": "CAATCTGAATTCCGGTCTCCC", "DNA 2": "TGGTGGCTACGACGGGATT"}, "B18": {"name": "CCGGUGA (DNA:RNA)", "RNA": "GGGAGACCGGAAUUCAGAUUGUCCCCGGUGAUUAAAUCCCGUCGUAGCCACCA", "DNA 1": "CAATCTGAATTCCGGTCTCCC", "DNA 2": "TGGTGGCTACGACGGGATT"}, "B19": {"name": "UUCUUCG (DNA:RNA)", "RNA": "B18 RNA with C25U, C26U, G27C, G28U, G30C, A31G", "DNA 1": "CAATCTGAATTCCGGTCTCCC", "DNA 2": "TGGTGGCTACGACGGGATT"}, "B20": {"name": "GUGAACA (DNA:RNA)", "RNA": "B18 RNA with C25G, C26U, G28A, U29A, G30C", "DNA 1": "CAATCTGAATTCCGGTCTCCC", "DNA 2": "TGGTGGCTACGACGGGATT"}},
  "note": "Where a chain is given by its changes, count along the chain named. The list shows a part of the results.",
  "data": [
    {"biological_target": "T1, RBFOX1 RRM RbFoxmut (Fox-RRM*) (Homo sapiens, UniProt Q9NWB1 109-208, R118D;E147R;N151S;E152T)", "T1 sequence": "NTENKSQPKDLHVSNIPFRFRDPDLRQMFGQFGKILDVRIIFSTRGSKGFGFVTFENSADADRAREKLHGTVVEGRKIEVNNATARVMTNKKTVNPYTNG", "assay": "EMSA; HiTS-Eq, 1 nM pool, 10 min; buffer printed only for the single-RNA assays: 10 mM Tris pH 7.5, 150 mM NaCl, 3.4 mM EDTA, 0.001% NP-40, 30 C", "settings": "tags: His6 N-terminal (pET28a); label: 5' 32P", "in_short": "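Relative association constants, normalised to the cognate motif, were derived by comparing read counts of each RNA species with those of the control reaction. The RNA sequenced was the free fraction, separated by 8% native PAGE after a 10 min equilibration in 50 µL of 1 nM 5′-radiolabelled RNA (7 randomized nucleotides) with increasing concentrations of purified wild-type or mutant RbFox RRM.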", "values": [
      {"binder": "B1", "binding signal": "0.0752 KA relative to UGCAUGU"},
      {"binder": "B2", "binding signal": "0.0703 KA relative to UGCAUGU"},
      {"binder": "B3", "binding signal": "0.105 KA relative to UGCAUGU"},
      {"binder": "B4", "binding signal": "0.787 KA relative to UGCAUGU"},
      {"binder": "B5", "binding signal": "0.0911 KA relative to UGCAUGU"},
      {"binder": "B6", "binding signal": "0.101 KA relative to UGCAUGU"},
      {"binder": "B7", "binding signal": "0.217 KA relative to UGCAUGU"},
      {"binder": "B8", "binding signal": "0.148 KA relative to UGCAUGU"},
      {"binder": "B9", "binding signal": "0.0999 KA relative to UGCAUGU"},
      {"binder": "B10", "binding signal": "0.0686 KA relative to UGCAUGU"},
      {"binder": "B11", "binding signal": "0.0929 KA relative to UGCAUGU"},
      {"binder": "B12", "binding signal": "0.0982 KA relative to UGCAUGU"},
      {"binder": "B13", "binding signal": "0.102 KA relative to UGCAUGU"},
      {"binder": "B14", "binding signal": "0.059 KA relative to UGCAUGU"},
      {"binder": "B15", "binding signal": "0.0674 KA relative to UGCAUGU"},
      {"binder": "B16", "binding signal": "0.106 KA relative to UGCAUGU"},
      {"binder": "B17", "binding signal": "0.0887 KA relative to UGCAUGU"},
      {"binder": "B18", "binding signal": "0.0874 KA relative to UGCAUGU"},
      {"binder": "B19", "binding signal": "0.106 KA relative to UGCAUGU"},
      {"binder": "B20", "binding signal": "0.103 KA relative to UGCAUGU"}
    ]}
  ]
}
